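Compound exposure: 48 hours, 5 concentrations, 96-well plates. Here, GI50 denotes the concentration required for 50% inhibition of growth.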 The source made the active and inactive calls. Rule as the data show it: active = GI50 up to about 1.1 µM and inactive = higher.
Each molecule was assayed on NCI-H322M (assay: inhibition of tumour cell growth, NCI panel, 48 h).
For `COc1ccc(/C(Cl)=C(\C=O)c2ccc(F)cc2)cc1`, the GI50 was inactive: 15.5 µM. In the case of `c1ccc2c(c1)c(N1CCCCC1)cc1nc3c(cc(N4CCCCC4)c4ccccc43)nc12`, the GI50 is reported as inactive: > 100 µM. `CC1CCCC(C(O)CC2CC(=O)N(c3ccccc3)C(=O)C2)C1=O` (stereo not drawn) was tested, and the GI50 was inactive: > 100 µM. With `COC(=O)[C@](C)(Cc1ccccc1)NC(=O)[C@@H](C)N1[C@@H](c2ccccc2)COC1(C)C` the GI50 was inactive: > 100 µM. `NNC(=O)CSc1nc2ccc(I)cc2c(=O)n1Cc1ccccc1` was tested, and the GI50 was inactive: 22.2 µM. In the case of `N#CC(C#N)=C(C(C#N)C#N)C(C#N)C#N`, the GI50 is reported as inactive: > 100 µM. For `COc1ccc(OC)c2c(/C=C/c3ccc(N(C)C)cc3)ccnc12`, the GI50 was inactive: > 10 µM. With `CCN(CC)CCNC(=O)c1cc2cc(NC(=O)c3cc4cc(NC(=O)c5cc6cc(N)ccc6[nH]5)ccc4[nH]3)ccc2[nH]1` the GI50 was inactive: > 100 µM. In the case of `CN1COCc2cc3cc4c(cc3nc21)OCCO4`, the GI50 is reported as inactive: > 100 µM. `N#CC1=C(C#N)/C(=C(\C#N)C(C#N)C#N)N=C1N` was tested, and the GI50 was inactive: 16.4 µM. With `CCCCC(CCCC)=NNC(=S)SC` the GI50 was inactive: 25.5 µM. `CN(C)CCCN1c2ccc([N+](=O)[O-])cc2CCc2cc([N+](=O)[O-])ccc21` was tested, and the GI50 was inactive: 13.9 µM. With `CC(=O)C1=C(C)NC2C=CC=CN12` (stereo not drawn) the GI50 was inactive: > 100 µM. With `COc1c(C)n(CCO)ccc1=O` the GI50 was inactive: > 100 µM. With `c1ccc2c(c1)nc1n2sc2nc3ccccc3n21` the GI50 was inactive: > 100 µM. For `O=C(O)C1(C(O)c2ccccc2)SCCCS1` (stereo not drawn), the GI50 was inactive: 9.23 µM. For `O=C1C=C(C2=CC(=O)C(=O)c3ccccc32)c2ccccc2C1=O`, the GI50 was inactive: 25.9 µM. With `C=CCC(C)(C(=O)NCCC)C(=O)c1ccccc1O` (stereo not drawn) the GI50 was inactive: > 100 µM. For `O=C1CCCC2C(O)CCC[C@H]12` (stereo partly drawn), the GI50 was inactive: > 100 µM. For `CCC(C)C(=O)O[C@H]1C(=O)O[C@@H]2C[C@H]3C(C)=CC(=O)[C@@H](O)[C@]3(C)[C@H]3[C@@H](O)[C@H](O)[C@@]4(C)OC[C@]32[C@@H]14` (stereo partly drawn), the GI50 was active: < 0.0506 µM. With `O=C(OCc1ccccc1)n1cccc1` the GI50 was inactive: > 100 µM. `O=C(O)c1ccn(-c2cccc(-n3ccc(C(=O)O)n3)n2)n1` was tested, and the GI50 was inactive: > 100 µM. `C=C1c2[nH]c3ccccc3c2CC(C(=O)O)N1C(O)c1ccc(S(=O)(=O)O)cc1` (stereo not drawn) was tested, and the GI50 was inactive: > 100 µM. `CC/C(=N\NS(=O)(=O)c1ccccc1)c1ccccc1` was tested, and the GI50 was inactive: > 100 µM. `CCOC(=O)C12CCCC1(O)N(NC(=O)OC)C(C)=C2C(=O)OC` (stereo not drawn) was tested, and the GI50 was inactive: > 100 µM. For `Nc1nc(N)c2cc(-c3cc4ccccc4[nH]3)ccc2n1`, the GI50 was inactive: 32.1 µM. For `CCN(CC)c1ccc(/C=C/c2ccnc3ccccc23)cc1`, the GI50 was inactive: > 100 µM. `CC(C)(C)COS(=O)OCC(C)(C)C` was tested, and the GI50 was inactive: > 100 µM. With `Nc1nc(-c2ccccc2)cc(-c2cc(Cl)ccc2O)n1` the GI50 was inactive: 95.5 µM. In the case of `N#Cc1nc(-c2ccc(-c3nc(C#N)c(N)o3)cc2)oc1N`, the GI50 is reported as inactive: > 10 µM. In the case of `COC(C(O)c1ccc2c(c1)OCO2)P(=O)(c1ccccc1)c1ccccc1` (stereo not drawn), the GI50 is reported as inactive: > 100 µM. In the case of `COc1cc2c(cc1O)NC(=S)[C@@H]1CCCN1C2=O`, the GI50 is reported as inactive: > 100 µM. In the case of `CC[N+](CC)(CC)Cc1cn(S(=O)(=O)c2ccccc2)c2ccccc12`, the GI50 is reported as inactive: > 100 µM. For `COc1ccc(C(=O)NCCC2=CCCCC2)cc1`, the GI50 was inactive: > 100 µM. For `CC(C)c1cc(C(C)C)c(S(=O)(=O)NN)c(C(C)C)c1`, the GI50 was inactive: > 100 µM. With `CC(C)N1CN(C(C(=O)N[C@@H]2C(=O)N3C2SC(C)(C)C3C(=O)O)c2ccc(O)cc2)CSC1=S` (stereo partly drawn) the GI50 was inactive: > 100 µM. `COc1cc(C)cc(C(=O)/C=C/c2ccccc2)c1O` was tested, and the GI50 was inactive: 23.8 µM. For `CCCCC1C(=O)N(c2ccc(S(=O)(=O)Nc3ccccn3)cc2)N(c2ccc(O)c(C(=O)O)c2)C1=O` (stereo not drawn), the GI50 was inactive: > 100 µM. With `O=C(NC(=O)c1ccccc1[N+](=O)[O-])Nc1ccc(Oc2ncc(Br)cn2)c(Cl)c1` the GI50 was active: 0.0357 µM. In the case of `C=C(C)C1CCC2(C)C1CCC1(C)C2CCC2C3(C)C4OC(OC4=O)C(C)(C)C3CCC21C` (stereo not drawn), the GI50 is reported as inactive: > 100 µM. In the case of `CCN(CC)C1=Nc2ccccc2-n2ccnc2C1`, the GI50 is reported as inactive: > 100 µM. With `CC1(Cl)CC(C)(/C=C/Cl)C(Cl)CC1Cl` (stereo not drawn) the GI50 was inactive: 19.9 µM. `CC(C)(/N=N/C(C)(C)C1=NCCN1)C1=NCCN1` was tested, and the GI50 was inactive: > 100 µM. With `Nc1nc(SCc2ccc([N+](=O)[O-])cc2)nc2c1ncn2C1OC(CO)C(O)C1O` (stereo not drawn) the GI50 was inactive: > 100 µM. With `CC1=NN(c2nc(N)nc(CSc3cc(Cl)c(C)cc3S(N)(=O)=O)n2)C(C)(C)C1` the GI50 was inactive: > 10 µM. With `CCC(=O)C1(c2ccccc2)CCN(C)CC1` the GI50 was inactive: > 100 µM. `CC(=O)O[C@H]1C(=O)[C@]2(C)[C@@H](OC(=O)OCC(O)CO)C[C@H]3OC[C@@]3(OC(C)=O)[C@H]2[C@H](OC(=O)c2ccccc2)[C@]2(O)C[C@H](OC(=O)[C@H](O)[C@@H](NC(=O)c3ccccc3)c3ccccc3)C(C)=C1C2(C)C` (stereo partly drawn) [PACLITAXEL CERIBATE] was tested, and the GI50 was active: < 0.01 µM. `CCCCCCCCCCCCCCCCNc1nc(=O)n(C2CC(O)C(COP(=O)(O)OC3CC(n4cc(F)c(=O)[nH]c4=O)OC3CO)O2)cc1F` (stereo not drawn) was tested, and the GI50 was active: 0.286 µM. In the case of `CCOC(=O)N1CCC2(CC1)C[C@](Sc1ccccc1)(C(C)=O)[C@H](C)O2`, the GI50 is reported as inactive: > 100 µM. In the case of `ClC(Cl)=C(Cl)C1(Cl)CC1COCc1ccccc1` (stereo not drawn), the GI50 is reported as inactive: 36.5 µM. For `O=C1c2ccccc2C(=O)c2c1cc(S(=O)(=O)O)c(O)c2O` [Alizarin Red S], the GI50 was inactive: > 100 µM. For `COc1ccc(-c2c(C#N)c(NC(=S)NC(=O)c3ccccc3)nc3c2CCCC3)cc1OC`, the GI50 was inactive: > 100 µM. `CC(C)(C)OC(=O)NC1CCCC1=O` (stereo not drawn) was tested, and the GI50 was inactive: > 100 µM. In the case of `Nc1cccc(Nc2nc3ccccc3nc2NS(=O)(=O)c2ccccc2)c1`, the GI50 is reported as inactive: 30.3 µM. `C/C(=N\NC(=O)C(N)=O)c1c(O)cc(C)oc1=O` was tested, and the GI50 was inactive: > 100 µM. With `C[N+](C)(C)C1CC([N+](C)(C)C)C2c3ccccc3C21` (stereo not drawn) the GI50 was inactive: > 100 µM. `O=C1C(CO)=C[C@H](O)[C@H]2O[C@@H]12` was tested, and the GI50 was inactive: 130 µM. `O=C1c2ccccc2CCC1C(O)(C(F)(F)F)C(F)(F)F` (stereo not drawn) was tested, and the GI50 was inactive: > 100 µM. With `O=c1[nH]nc(Cc2c[nH]c3ccccc23)o1` the GI50 was inactive: > 100 µM. `COc1ccc2[nH]cc(CCNC(=O)[C@H](Cc3ccccc3)NC(=O)[C@@H](NCC(F)(F)F)C(C)C)c2c1` was tested, and the GI50 was inactive: 20.7 µM. With `C=CC[N+]12CN3CN(CN(C3)C1)C2` the GI50 was inactive: 19.4 µM. For `CCOC(=O)c1cnc2c(ccc3ncccc32)c1OCC`, the GI50 was inactive: > 100 µM. In the case of `NC1CCCCC1.O=P(O)(O)C(O)/C=C/c1ccccc1` (stereo not drawn), the GI50 is reported as inactive: > 100 µM. `O=C(O)CC(Cc1ccccc1Cl)C(=O)O` (stereo not drawn) was tested, and the GI50 was inactive: > 100 µM. With `O=c1cc(-c2cc(O)c(O)c(-c3c(O)cc4oc(-c5ccc(O)c(O)c5)cc(=O)c4c3O)c2)oc2cc(O)cc(O)c12` the GI50 was inactive: > 25 µM. `C/C(=N\NC(=S)N1CCCCC1)c1nc2cccnc2[nH]1` was tested, and the GI50 was inactive: 15.6 µM. In the case of `COC(CNC(=O)C(C)NC(=O)C(C)NC(=O)c1ccccc1)OC` (stereo not drawn), the GI50 is reported as inactive: > 100 µM. `COc1cc2cc3c4c(cc(OC)c(OC)c4c2cc1OC)CCN3C` was tested, and the GI50 was inactive: 35.7 µM.

Reference: ChEMBL document CHEMBL1201862, “PubChem BioAssay data set” (2004)
